From PubChem BioAssay AID1963576 (National Center for Advancing Translational Sciences (NCATS), 2024)
Hit rate of the full screen: of about 46,000 compounds, about 60 (0.1%) were called active. Inconclusive results (about 3%) are left out. Calls come from the whole dose curve; as a rule, active = well fitted inhibition curve with a large enough effect; inconclusive = small, poorly fitted or top-dose-only effect; inactive = no such curve, though single readings can be large or run the other way. Some of the results follow.

Assay: Primary qHTS assay for Inhibitors of ovarian cancer metastasis using an organotypic tumor microenvironment (TME) model.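 For activity change, negative = inhibition: plate controls were DMSO wells for no effect and tomatine positive control wells for full effect.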 Note: nearly all actives have a fitted effect of over 65% in size.
Details: SKOV3ip1-GFP adhesion/invasion on 3D omental model, fluorescence; series mostly up to 45.8 µM; activity change, negative = inhibition: at the top concentration
Outline: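 Primary human omental fibroblast/mesothelial 3D culture pre-formed 48 h. SKOV3ip1-GFP cells added with compounds (0.36-46 umol/L), incubated 2 h RT/16 h 37 C, fixed; GFP cells quantified at 488/509 nm.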

Row | Structure (SMILES) | activity change, negative = inhibition | outcome
1 | Cc1ccc2c(c1)c(=O)c(C(=O)c1ccncc1)cn2CC(=O)Nc1ccccc1Cl | inactive: -6.85% | 
2 | CCc1ccc(C2=CC(c3cccc(Br)c3)n3nnnc3N2)cc1 (centres undefined) | inactive: -8.02% | 
3 | CC(C)C(=O)Nc1cccc(NC2=NS(=O)(=O)c3ccccc32)c1 | inactive: 21.1% | 
4 | Cc1ccc(C)c(N2CCN(c3nc4ccccc4c4nc(-c5cccnc5)nn34)CC2)c1 | inactive: 6.37% | 
5 | CCOC(=O)c1cccc(NC(c2nnc(-c3ccccc3)o2)c2ccccc2F)c1 (centres undefined) |  | inactive
6 | CC(=O)Nc1nnc(SCc2cc(=O)c3cccc(C)c3[nH]2)s1 | inactive: -10.5% | 
7 | CC1=C(C(=O)Nc2ccc(C)cc2C)C(c2cccn2C)n2ncnc2N1 (centres undefined) | inactive: -18.8% | 
8 | COc1ccc(CCNC(=O)CCCCCn2c(=O)[nH]c3cc(OC)c(OC)cc3c2=O)cc1OC |  | inactive
9 | CNC(=O)CN1CCC(Oc2cc3c(Nc4cccc(Cl)c4F)ncnc3cc2OC)CC1 | inactive: -20.6% | 
10 | Cc1ccc(C)c(Cn2c(C)c(CNCc3ccc(F)cc3)c(C(=O)O)c2C)c1 |  | inactive
11 | COc1ccc(NC(=O)CSc2nc(O)c(C/C=C/c3ccccc3)c(=O)[nH]2)cc1 | inactive: -4.39% | 
12 | Cc1ccc(CNC(=O)C2CCCN(c3nnc(-n4c(C)ccc4C)s3)C2)cc1 (centres undefined) | inactive: 0.146% | 
13 | CCc1ccc(NC(=O)Cn2c(=O)oc3cc(S(=O)(=O)NCc4ccccc4)ccc32)cc1 | inactive: -2.66% | 
14 | CCCS(=O)(=O)Nc1ccc(F)c(C(=O)c2c[nH]c3ncc(Cl)cc23)c1F | inactive: -9.38% | 
15 | COc1ccccc1CNC(=O)CCC1N=C2c3ccccc3N=C(SCc3ccccc3Cl)N2C1=O (centres undefined) | inactive: -3.5% | 
16 | CCSc1nc(-c2ccc(Cl)cc2)nc2c1Cc1c(CO)cnc(C)c1O2 | inactive: 4.4% | 
17 | CC1=C(c2ccc(Cl)cc2)S(=O)(=O)N=C1N1CCN(c2cccc(C(F)(F)F)c2)CC1 |  | inactive
18 | COC(=O)c1cnc(N2CCN(c3ccccc3OC)CC2)c2ccccc12 |  | inactive
19 | CCOC(=O)c1ccc(NC(=O)CCn2cnnn2)cc1 |  | inactive
20 | CCOC(=O)c1sc2ccccc2c1S(=O)(=O)NCc1ccc(F)cc1 | inactive: 3.29% | 
21 | COc1ccc(-c2cc(C(F)(F)F)n3nc(C(=O)Nc4cccc(C(F)(F)F)c4)c(Br)c3n2)cc1 | inactive: -5.46% | 
22 | CCN1CCCC1CNC(=O)c1cc(S(=O)(=O)CC)c(N)cc1OC (centres undefined) | inactive: -6.27% | 
23 | Cc1ccc(-n2nnnc2CNC(=O)c2ccccc2F)cc1C | inactive: 2.5% | 
24 | Cc1ccc(NC(c2nnc(-c3ccccc3)o2)c2ccccc2F)c([N+](=O)[O-])c1 (centres undefined) | inactive: -3.38% | 

Row | Structure (SMILES) | activity change, negative = inhibition | outcome
25 | O=C(NCc1ccccc1Cl)c1ccc(CSCc2cccc(F)c2)o1 | inactive: -6.81% | 
26 | Nc1nc(N)nc(-c2cc(Cl)ccc2Cl)n1 | inactive: -14.6% | 
27 | O=c1[nH]c(-c2ccc(C(F)(F)F)cc2)nc2c1CSCC2 | inactive: -15.6% | 
28 | CCc1cccc(NC(=O)Cn2cc(C(=O)c3ccncc3)c(=O)c3cc(C)c(C)cc32)c1 | inactive: -0.146% | 
29 | O=C(NCc1ccc(Cl)cc1)c1ccc2c(c1)NC(=O)C(CS(=O)(=O)Cc1ccccc1Cl)N2 (centres undefined) | inactive: -8.99% | 
30 | O=C(Nc1c(C(=O)Nc2cccc(C(F)(F)F)c2)oc2ccccc12)c1cc(=O)c2ccccc2o1 | inactive: 3.35% | 
31 | O=C(O)CCn1cnc2onc(-c3ccccc3Cl)c2c1=O | inactive: -8.83% | 
32 | CCC1CCCCN1C(=O)Cn1c(=O)n(CCCCCC(=O)NCc2ccc(F)cc2)c(=O)c2sccc21 (centres undefined) | inactive: 0.613% | 
33 | Cc1cccn2c(=O)cc(COc3ccc(NC(=O)c4cccc(F)c4)cc3)nc12 |  | inactive
34 | Cc1cccc(C(=O)OCc2cc(=O)n3nc(C4CCCCC4)sc3n2)c1 | inactive: -1.07% | 
35 | CC(C)Sc1ncc(Cl)c(C(=O)N(Cc2ccc(F)cc2)C2CCS(=O)(=O)C2)n1 (centres undefined) | inactive: -3.45% | 
36 | Cc1ccc(-c2nn3c(-c4ccccc4)nnc3c3ccccc23)cc1 |  | inactive
37 | O=C(Cc1cccs1)NC1CC(=O)N(c2ccc(Cl)cc2)C1 (centres undefined) | inactive: 0.0491% | 
38 | CCC1=C[C@@H]2CN(C1)Cc1c([nH]c3ccccc13)[C@@](C(=O)OC)(c1cc3c(cc1OC)N(C)[C@@H]1[C@@](O)(C(=O)OC)[C@H](OC(C)=O)[C@]4(CC)C=CCN5CC[C@]31[C@@H]54)C2 | inactive: 9.28% | 
39 | CC1=C(C(=O)Nc2ccc(C)cc2)C(c2ccc(Cl)cc2)n2nnnc2N1 (centres undefined) |  | inactive
40 | Cc1ccc(NC(=O)CN2C(=O)C(C)(C)c3ccccc32)cc1 | inactive: -16.1% | 
41 | O=C(NCCC1=CCCCC1)c1ccc2c(c1)N(Cc1ccccc1F)C(=O)c1ccccc1S2(=O)=O | inactive: -1.06% | 
42 | CCc1cccc(N2C(=O)CS(=O)(=O)C23C(=O)N(Cc2ccc(F)cc2)c2ccc(C)cc23)c1 (centres undefined) | inactive: 14.7% | 
43 | COc1ccc(N2Cc3cccc(C(=O)Nc4ccc(C)c(C)c4)c3C2=O)cc1 | inactive: -7.51% | 
44 | Cc1cc(C)cc(NC(=O)C(=O)NC(C)c2ccccc2)c1 (centres undefined) |  | inactive
45 | O=C(Nc1cccc(Cl)c1)Nc1ncc(CCNc2ncnc3ccsc23)s1 | inactive: -5.14% | 
46 | CCOC(=O)c1cc(-c2ccccc2)n(-c2cccc(C(=O)N(CC)c3ccccc3)c2)c1C | inactive: -9.87% | 
47 | CCOC(=O)c1c(NC(=O)c2ccc(S(=O)(=O)N3CCCC(C)C3)cc2)sc2c1CCN(C(C)C)C2 (centres undefined) |  | inactive
48 | Cc1ccc(S(=O)(=O)c2nc(-c3ccco3)oc2SCc2ccccc2Cl)cc1 | inactive: -0.925% | 

Row | Structure (SMILES) | activity change, negative = inhibition | outcome
49 | COc1ccc(N2CC(NC(=O)COc3ccccc3C)CC2=O)cc1OC (centres undefined) |  | inactive
50 | CCN1c2cc(C)ccc2-n2cccc2C12CCN(C(=O)Nc1cc(OC)c(OC)c(OC)c1)CC2 | inactive: -1.12% | 
51 | Cc1cc(C)cc(-n2ccn3c(CC(C)(C)CC(=O)O)nnc3c2=O)c1 | inactive: -3.08% | 
52 | COc1cccc(NC(=O)C2CCCN2S(=O)(=O)c2ccc3c(c2)C(C)(C)C(=O)N3C)c1 (centres undefined) | inactive: 6.63% | 
53 | Cc1ccc2oc3c(c(=O)c2c1)C(c1cccc(O)c1)N(Cc1ccccc1Cl)C3=O (centres undefined) | inactive: -14.1% | 
54 | COc1ccc(N2CCN(C(=O)NCc3noc4ccccc34)CC2)cc1 | inactive: -3.31% | 
55 | Cc1ccc(-n2c(SCC(=O)Nc3cccc(F)c3)nc3c(oc4ccccc43)c2=O)cc1C |  | inactive
56 | Cc1c2cnn(-c3ccccc3)c(=O)c2c(C)n1C(C)C(=O)Nc1ccc(Br)cc1F (centres undefined) | inactive: 9.02% | 
57 | N#Cc1ccccc1Cn1c(=O)n(Cc2ccc(C(=O)NC3CCN(Cc4ccccc4)CC3)cc2)c(=O)c2ccccc21 |  | inactive
58 | CSc1ccc(CCNC(=O)CCc2c(C)nc3cc(-c4ccccc4)nn3c2C)cc1 | inactive: -4.31% | 
59 | CCCOc1ccc(CN(C(=O)c2nc(SC(C)C)ncc2Cl)C2CCS(=O)(=O)C2)cc1 (centres undefined) | inactive: 0.94% | 
60 | COc1cc2[nH]c(=O)n(CCCCCC(=O)NCCc3ccccc3)c(=O)c2cc1OC | inactive: 42.2% | 
61 | CCNC(=O)c1ccc2nc(Cc3ccccc3)oc2c1 | inactive: 2.4% | 
62 | O=C(Nc1c(C(=O)Nc2cccc(F)c2)oc2ccccc12)c1cc2ccccc2o1 | inactive: 35.6% | 
63 | Fc1ccc(-c2ccc(CNCCSc3nnnn3-c3ccccc3)o2)cc1Cl | inactive: -24.2% | 
64 | CCOc1nc(-c2ccc(C)cc2)ccc1-c1noc(-c2ccccc2F)n1 | inactive: -0.748% | 
65 | O=C(Nc1nnc(S(=O)(=O)N2CCc3ccccc32)s1)c1ccccc1 | inactive: 7.39% | 
66 | O=C(CSc1ncc(CO)n1Cc1ccccc1)Nc1ccc(C(F)(F)F)cc1 |  | inactive
67 | COc1cccc(C2c3c(-c4ccccc4O)n[nH]c3C(=O)N2CCc2ccc(OC)c(OC)c2)c1 (centres undefined) | inactive: -3.54% | 
68 | CC(C)COc1ccc(C(=O)N2CCN(CCc3ccccn3)CC2)cc1 | inactive: 9.57% | 
69 | CCOC(=O)c1c(NC(=O)COc2cccc(C(F)(F)F)c2)sc2c1CCCCC2 |  | inactive
70 | CCOc1ccc(CCNC(=O)Cn2ncn3c(cc4ccccc43)c2=O)cc1OCC | inactive: -6.82% | 
71 | CCn1c(C(=O)Nc2cc(Cl)ccc2C)cc2sc(Cl)cc21 | inactive: 16.3% | 
72 | COc1ccc(CCNC(=O)CCc2c(C)c3cc4c(C)c(C)oc4cc3oc2=O)cc1 | inactive: -21% | 

Row | Structure (SMILES) | activity change, negative = inhibition | outcome
73 | COc1ccc(NC(=O)CC(C)n2nc(C)cc2C)cc1Cl (centres undefined) | inactive: 7.28% | 
74 | CCN(CC)S(=O)(=O)c1ccc2oc(C(=O)Nc3ccc(Br)cc3F)c(C)c2c1 | inactive: 2.38% | 
75 | COc1ccc(CNC(=O)CN2C(=O)CCCc3ccccc32)cc1 | inactive: -1.24% | 
76 | Cc1ccc(-c2nc3ccc(Cl)cn3c2Nc2ccc3c(c2)OCCO3)s1 | inactive: -3.82% | 
77 | Cc1ccc(Sc2c(C(=O)NCc3ccccc3C)[nH]c3ccccc23)cc1 | inactive: -7.31% | 
78 | COc1cc(NC(=O)c2cnc3c(-c4ccc(F)cc4)c(C)nn3c2C)cc(OC)c1 |  | inactive
79 | CCc1ccc(-c2nc(-c3cc4ccccc4oc3=O)sc2C)cc1 | inactive: -9.25% | 
80 | Nc1ncnc2c1c(-c1cccc(OCc3ccccc3)c1)cn2C1CC(CN2CCCC2)C1 (centres undefined) | inactive: -18.1% | 
81 | Cc1cc2[nH]c(=O)c(=O)[nH]c2cc1S(=O)(=O)N1CCN(c2cccc(C)c2C)CC1 |  | inactive
82 | Cc1cccc(-c2nc(SCC(=O)NCc3ccco3)c3c(=O)n(C)c(=O)n(C)c3n2)c1 | inactive: 2.55% | 
83 | Cc1ccc(Cn2c(CNS(=O)(=O)c3ccc(Cl)s3)nc3cccnc32)cc1 | inactive: 7.54% | 
84 | CCOC(=O)c1ccc(NS(=O)(=O)c2cc(Br)cc3c2N(C(C)=O)C(C)C3)cc1 (centres undefined) |  | inactive
85 | CCN(CCCNC(=O)c1nn(-c2ccc(OC)c(Cl)c2)c(=O)c2c1c1ccccc1n2C)c1cccc(C)c1 | inactive: -7.62% | 
86 | Cc1cccc(-n2ccnc2SCC(=O)Nc2nc3ccccc3s2)c1 |  | inactive
87 | COc1ccccc1N1CCN(c2nc3c(S(=O)(=O)c4ccc(C)c(C)c4)nnn3c3ccc(Cl)cc23)CC1 | inactive: 0.625% | 
88 | CCOC(=O)C(=O)Nc1c(C(=O)Nc2cccc(F)c2)oc2ccccc12 | inactive: 50.3% | 
89 | CN(C)c1ccc(C2Nc3ccc4ccccc4c3C3=C2C(=O)CC(C)(C)C3)cc1Br (centres undefined) | inactive: 4.97% | 
90 | CCc1c(C)sc(NC(=O)C2c3ccccc3Oc3ccccc32)c1C(=O)OC(C)C |  | inactive
91 | COc1ccc(CNC(=O)c2cc(-c3ccc(C)c(C)c3)n[nH]2)cc1 | inactive: -0.209% | 
92 | CCc1ccccc1Nc1cc(C(=O)NC2CCC(C)CC2)c2ccccc2n1 (centres undefined) |  | inactive
93 | COc1ccc(OC)c(C2C(C(=O)Nc3ccccc3OC)=C(C)Nc3c(C(=O)Nc4ccc(F)cc4)cnn32)c1 (centres undefined) |  | inactive
94 | COc1ccc(C(=O)Nc2c(C(=O)c3ccccc3)oc3ccccc23)cc1 | inactive: 44.1% | 
